We go through 13 compounds from PubChem BioAssay (NCI).

The test system of this test is NCI-H322M lung. The test can be described thus: growth of human tumour cells (NCI), 48 h.

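The compound was tested at five concentrations on cells cultured in 96-well plates, with a 48-hour exposure period. The concentration for 50% growth inhibition is given as GI50. TGI marks complete inhibition of growth.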 Bounds are passed on as bounds.

On to `CCCCCCCC1(N=[N+]=[N-])C(=O)c2ccccc2N(C)C1=O` (stereo not given), for which the TGI was above 100 µM.
`CC(=O)C1C(=O)C(=O)N(c2cccc(C)c2C)C1=O` (stereo not given) had a TGI above 100 µM.
Compound `COc1cc2c(cc1OCCCOc1cc(-c3ccc(F)cc3)nc(C)n1)N=C[C@@H]1CCCN1C2=O` yielded a TGI of 61.6 µM.
As to `CC1CC2(C)ON=C(c3ccccc3)N2c2ccccc2S1` (stereo not given), the GI50 was 67.3 µM.
`COC(=O)C1=C2CCC(=O)[C@@]2(C)C(OC(C)=O)C=CC1` (stereo not given in full) returned a TGI above 100 µM.
In turn, `COc1c(Cl)c2c(c(OC)c1OC)-c1ccc(OC)c(=O)c(Cl)c1C(NC(C)=O)CC2` (stereo not given) had a TGI of 42.8 µM.
Same read-out and setting: the same measure for `C=C(C)C1CC=C(C)[C@](O)(C2(O)C[C@H](C(=C)C)CC=C2C)C1` (stereo not given in full): above 100 µM.
In the case of `O=c1c2cccc(Cl)c2sc2c(NCCCNCCO)nc3ccccc3c12`, the GI50 is 3.09 µM and the TGI was 13.8 µM.
As to `CCN(CC)CCCC(C)Nc1cnc(C(=O)Nc2ccc(Cl)c3cccnc23)cn1` (stereo not given), the GI50 is 2.42 µM and the TGI turned out to be 7.91 µM.
`O=C1/C(=C/c2cccnc2)C(n2cccc2)c2c(Br)sc(Br)c21` (stereo not given) showed a TGI of 4.03 µM.
`CCOC(=O)c1c(N)nn2c1cc1cccccc12` yielded a TGI above 100 µM.
Compound `COc1cc2cc(C(=O)N3CC(CCl)c4c3cc([N+](=O)[O-])c3ccccc43)[nH]c2c(OC)c1OC` (stereo not given) registered a TGI above 100 µM.
Regarding `O=c1/c(=C/c2cccc([N+](=O)[O-])c2)sc2nc3ccccc3n12`, the TGI was above 100 µM.
